{"source": "the supplement of paper PMC8512760", "test_in_all_cases": "cell viability relative to vehicle (% of vehicle); basal-like triple-negative breast cancer lines; higher = less cytotoxic", "settings_in_all_cases": "10 µM; 72 h", "key": {"HCC-1143": {"tested_on": "HCC-1143"}, "HCC-1187": {"tested_on": "HCC-1187"}, "MDA-468": {"tested_on": "MDA-468"}, "SUM-149": {"tested_on": "SUM-149"}}, "note": "The list shows a part of the results. Repeats are few or missing, and single values can be far off.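 Also: stably firefly luciferase-GFP labeled cells in 96-well plates, viability read as luciferase photon flux after d-luciferin addition, treated wells normalized to vehicle wells, single-dose high-throughput screen.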", "data": [{"smiles": "CCCCC(=O)N(Cc1ccc(-c2ccccc2-c2nn[nH]n2)cc1)C(C(=O)O)C(C)C", "note": "(centres undefined) [Valsartan]", "values": [{"measurement": "cell viability", "setting": "HCC-1143", "result": 123}, {"measurement": "cell viability", "setting": "HCC-1187", "result": 113}, {"measurement": "cell viability", "setting": "MDA-468", "result": 85.8}, {"measurement": "cell viability", "setting": "SUM-149", "result": 125}]}, {"smiles": "CCCCC1=NC2(CCCC2)C(=O)N1Cc1ccc(-c2ccccc2-c2nn[nH]n2)cc1", "note": "[Irbesartan]", "values": [{"measurement": "cell viability", "setting": "HCC-1143", "result": 85.2}, {"measurement": "cell viability", "setting": "HCC-1187", "result": 125}, {"measurement": "cell viability", "setting": "MDA-468", "result": 90.4}, {"measurement": "cell viability", "setting": "SUM-149", "result": 125}]}, {"smiles": "Cn1cnc([N+](=O)[O-])c1Sc1ncnc2nc[nH]c12", "note": "[Azathioprine]", "values": [{"measurement": "cell viability", "setting": "HCC-1143", "result": 66.5}, {"measurement": "cell viability", "setting": "HCC-1187", "result": 72.4}, {"measurement": "cell viability", "setting": "MDA-468", "result": 99.1}]}, {"smiles": "O=c1c(-n2ccnn2)c[nH]n1-c1cc(N2CCOCC2)ncn1", "note": "[Molidustat (BAY85-3934)]", "values": [{"measurement": "cell viability", "setting": "HCC-1143", "result": 137}, {"measurement": "cell viability", "setting": "HCC-1187", "result": 106}, {"measurement": "cell viability", "setting": "MDA-468", "result": 170}]}, {"smiles": "CC1CCOC2Cn3cc(C(=O)NCc4ccc(F)cc4F)c(=O)c(O)c3C(=O)N12", "note": "(centres undefined)", "values": [{"measurement": "cell viability", "setting": "HCC-1143", "result": 158}, {"measurement": "cell viability", "setting": "HCC-1187", "result": 69}, {"measurement": "cell viability", "setting": "MDA-468", "result": 150}]}, {"smiles": "Nc1nc(NC2CC2)c2ncn(C3C=CC(CO)C3)c2n1", "note": "(centres undefined) [Abacavir]", "values": [{"measurement": "cell viability", "setting": "HCC-1143", "result": 168}, {"measurement": "cell viability", "setting": "HCC-1187", "result": 101}]}, {"smiles": "CCCC(C(=O)OCCN(CC)CC)(c1ccccc1)c1ccccc1.Cl", "note": "[SKF 525A (hydrochloride)]", "values": [{"measurement": "cell viability", "setting": "HCC-1143", "result": 72.3}, {"measurement": "cell viability", "setting": "HCC-1187", "result": 92.5}, {"measurement": "cell viability", "setting": "MDA-468", "result": 102}, {"measurement": "cell viability", "setting": "SUM-149", "result": 84.5}]}, {"smiles": "CNC(=C[N+](=O)[O-])NCCSCc1ccc(CN(C)C)o1.Cl", "note": "[Ranitidine]", "values": [{"measurement": "cell viability", "setting": "HCC-1143", "result": 78.1}, {"measurement": "cell viability", "setting": "HCC-1187", "result": 89.9}, {"measurement": "cell viability", "setting": "MDA-468", "result": 96.6}, {"measurement": "cell viability", "setting": "SUM-149", "result": 102}]}, {"smiles": "O=C(CCc1ccc(O)cc1)c1c(O)cc(O)cc1OC1OC(CO)C(O)C(O)C1O", "note": "(centres undefined) [Phloridzin]", "values": [{"measurement": "cell viability", "setting": "HCC-1143", "result": 108}, {"measurement": "cell viability", "setting": "HCC-1187", "result": 99.2}, {"measurement": "cell viability", "setting": "MDA-468", "result": 126}, {"measurement": "cell viability", "setting": "SUM-149", "result": 102}]}, {"smiles": "CCCCCN(C)CCC(O)(P(=O)([O-])O)P(=O)(O)O.O.[Na+]", "note": "[Ibandronate sodium]", "values": [{"measurement": "cell viability", "setting": "HCC-1143", "result": 68.2}, {"measurement": "cell viability", "setting": "HCC-1187", "result": 87.6}, {"measurement": "cell viability", "setting": "MDA-468", "result": 105}, {"measurement": "cell viability", "setting": "SUM-149", "result": 93.5}]}, {"smiles": "COc1ccc(C(=O)CC(=O)c2ccc(C(C)(C)C)cc2)cc1", "note": "[Avobenzone]", "values": [{"measurement": "cell viability", "setting": "HCC-1143", "result": 79.3}, {"measurement": "cell viability", "setting": "HCC-1187", "result": 101}, {"measurement": "cell viability", "setting": "MDA-468", "result": 104}, {"measurement": "cell viability", "setting": "SUM-149", "result": 93.4}]}, {"smiles": "CN(C)CCN(Cc1ccccc1)c1ccccn1.Cl", "note": "[Tripelennamine HCl]", "values": [{"measurement": "cell viability", "setting": "HCC-1143", "result": 73.6}, {"measurement": "cell viability", "setting": "HCC-1187", "result": 65.8}, {"measurement": "cell viability", "setting": "MDA-468", "result": 116}, {"measurement": "cell viability", "setting": "SUM-149", "result": 96.2}]}, {"smiles": "COC(=O)Nc1nc2cc(C(=O)c3ccccc3)ccc2[nH]1", "note": "[Mebendazole]", "values": [{"measurement": "cell viability", "setting": "HCC-1143", "result": 73.5}, {"measurement": "cell viability", "setting": "HCC-1187", "result": 42}, {"measurement": "cell viability", "setting": "MDA-468", "result": 105}, {"measurement": "cell viability", "setting": "SUM-149", "result": 113}]}, {"smiles": "NCCC(O)(P(=O)(O)O)P(=O)(O)O", "note": "[Pamidronate]", "values": [{"measurement": "cell viability", "setting": "HCC-1143", "result": 92.1}, {"measurement": "cell viability", "setting": "HCC-1187", "result": 99.9}, {"measurement": "cell viability", "setting": "MDA-468", "result": 118}, {"measurement": "cell viability", "setting": "SUM-149", "result": 88.4}]}, {"smiles": "O=C(CCCN1CCC(O)(c2ccc(Cl)cc2)CC1)c1ccc(F)cc1", "note": "[Haloperidol]", "values": [{"measurement": "cell viability", "setting": "HCC-1143", "result": 80.7}, {"measurement": "cell viability", "setting": "HCC-1187", "result": 90.2}, {"measurement": "cell viability", "setting": "MDA-468", "result": 115}, {"measurement": "cell viability", "setting": "SUM-149", "result": 93.4}]}, {"smiles": "CCOc1nc2cccc(C(=O)OCc3oc(=O)oc3C)c2n1Cc1ccc(-c2ccccc2-c2nc(=O)o[nH]2)cc1", "note": "[Azilsartan Medoxomil]", "values": [{"measurement": "cell viability", "setting": "HCC-1143", "result": 89.9}, {"measurement": "cell viability", "setting": "HCC-1187", "result": 105}, {"measurement": "cell viability", "setting": "MDA-468", "result": 103}, {"measurement": "cell viability", "setting": "SUM-149", "result": 107}]}, {"smiles": "FC(F)(F)c1ccc(C=Cc2nc(COc3ccc(CCCCn4ccnn4)cc3)co2)cc1", "note": "[Mubritinib (TAK 165)]", "values": [{"measurement": "cell viability", "setting": "HCC-1143", "result": 94.7}, {"measurement": "cell viability", "setting": "HCC-1187", "result": 70.4}, {"measurement": "cell viability", "setting": "MDA-468", "result": 130}, {"measurement": "cell viability", "setting": "SUM-149", "result": 120}]}, {"smiles": "O=C(O)c1cccnc1Nc1cccc(C(F)(F)F)c1", "note": "[Niflumic acid]", "values": [{"measurement": "cell viability", "setting": "HCC-1143", "result": 78.6}, {"measurement": "cell viability", "setting": "HCC-1187", "result": 99.3}, {"measurement": "cell viability", "setting": "MDA-468", "result": 95.5}, {"measurement": "cell viability", "setting": "SUM-149", "result": 105}]}, {"smiles": "CNCC(O)c1ccc(O)c(O)c1.Cl", "note": "(centres undefined) [Epinephrine HCl]", "values": [{"measurement": "cell viability", "setting": "HCC-1143", "result": 83.1}, {"measurement": "cell viability", "setting": "HCC-1187", "result": 80.8}, {"measurement": "cell viability", "setting": "MDA-468", "result": 191}, {"measurement": "cell viability", "setting": "SUM-149", "result": 108}]}, {"smiles": "Clc1ccc(CSC(Cn2ccnc2)c2ccc(Cl)cc2Cl)cc1.O=[N+]([O-])O", "note": "(centres undefined) [Sulconazole Nitrate]", "values": [{"measurement": "cell viability", "setting": "HCC-1143", "result": 59.8}, {"measurement": "cell viability", "setting": "HCC-1187", "result": 28.6}, {"measurement": "cell viability", "setting": "MDA-468", "result": 75.7}, {"measurement": "cell viability", "setting": "SUM-149", "result": 123}]}, {"smiles": "CC(=O)O.NC(N)=NN=Cc1c(Cl)cccc1Cl", "note": "[Guanabenz Acetate]", "values": [{"measurement": "cell viability", "setting": "HCC-1143", "result": 92.1}, {"measurement": "cell viability", "setting": "HCC-1187", "result": 101}, {"measurement": "cell viability", "setting": "MDA-468", "result": 112}, {"measurement": "cell viability", "setting": "SUM-149", "result": 98.7}]}, {"smiles": "NC1CN(c2c(F)cc3c(=O)c(C(=O)O)cn(C4CC4F)c3c2Cl)CC12CC2.O", "note": "(centres undefined) [Sitafloxacin Hydrate]", "values": [{"measurement": "cell viability", "setting": "HCC-1143", "result": 80.8}, {"measurement": "cell viability", "setting": "HCC-1187", "result": 61.8}, {"measurement": "cell viability", "setting": "MDA-468", "result": 81.3}, {"measurement": "cell viability", "setting": "SUM-149", "result": 117}]}, {"smiles": "CCOC(=O)C(CCc1ccccc1)NC1CCc2ccccc2N(CC(=O)O)C1=O.Cl", "note": "(centres undefined) [Benazepril HCl]", "values": [{"measurement": "cell viability", "setting": "HCC-1143", "result": 97.4}, {"measurement": "cell viability", "setting": "HCC-1187", "result": 123}, {"measurement": "cell viability", "setting": "MDA-468", "result": 101}, {"measurement": "cell viability", "setting": "SUM-149", "result": 107}]}, {"smiles": "CC(O)C1C(=O)N2C(C(=O)O)=C(SC3CNC(CNS(N)(=O)=O)C3)C(C)C12.O", "note": "(centres undefined) [Doripenem Hydrate]", "values": [{"measurement": "cell viability", "setting": "HCC-1143", "result": 88}, {"measurement": "cell viability", "setting": "HCC-1187", "result": 90.1}, {"measurement": "cell viability", "setting": "MDA-468", "result": 85.2}, {"measurement": "cell viability", "setting": "SUM-149", "result": 102}]}, {"smiles": "C1N2CN3CN1CN(C2)C3", "note": "[Methenamine]", "values": [{"measurement": "cell viability", "setting": "HCC-1143", "result": 78.6}, {"measurement": "cell viability", "setting": "HCC-1187", "result": 96.4}, {"measurement": "cell viability", "setting": "MDA-468", "result": 94.6}, {"measurement": "cell viability", "setting": "SUM-149", "result": 104}]}, {"smiles": "CCNC1CN(CCCOC)S(=O)(=O)c2sc(S(N)(=O)=O)cc21", "note": "(centres undefined) [Brinzolamide]", "values": [{"measurement": "cell viability", "setting": "HCC-1143", "result": 106}, {"measurement": "cell viability", "setting": "HCC-1187", "result": 94.8}, {"measurement": "cell viability", "setting": "MDA-468", "result": 97.8}, {"measurement": "cell viability", "setting": "SUM-149", "result": 105}]}]}
